Test results from PubChem BioAssay AID504339 (National Center for Advancing Translational Sciences (NCATS), 2011).
The whole screen tested about 390,000 compounds, of which about 17,000 (4.4%) were called active. The inconclusive results got no clear call from the source; some entries with a clear call stand among them for comparison. Calls come from the whole dose curve; as a rule, active = well fitted inhibition curve with a large enough effect; inconclusive = small, poorly fitted or top-dose-only effect; inactive = no such curve, though single readings can be large or run the other way. Where the call is inconclusive, the potency comes from a doubtful curve fit.

The compounds below were run against Lysine-specific demethylase 4A (Homo sapiens) (UniProt O75164) (assay: qHTS Assay for Inhibitors of JMJD2A-Tudor Domain). Conditions: AlphaScreen JMJD2A-Tudor / H3K4me3 peptide binding; activity change, negative = inhibition: at 114 µM (top of the series).
% is set by controls: 0 for no effect and ±100 for the full control effect; potency is the fitted concentration of half-maximal effect; tags give direction and shape of the fitted curve.
Note: nearly all actives have a fitted effect of over 50% in size.

Sequence of UniProt O75164 (O75164 whole entry, looked up, the tested form may be a part): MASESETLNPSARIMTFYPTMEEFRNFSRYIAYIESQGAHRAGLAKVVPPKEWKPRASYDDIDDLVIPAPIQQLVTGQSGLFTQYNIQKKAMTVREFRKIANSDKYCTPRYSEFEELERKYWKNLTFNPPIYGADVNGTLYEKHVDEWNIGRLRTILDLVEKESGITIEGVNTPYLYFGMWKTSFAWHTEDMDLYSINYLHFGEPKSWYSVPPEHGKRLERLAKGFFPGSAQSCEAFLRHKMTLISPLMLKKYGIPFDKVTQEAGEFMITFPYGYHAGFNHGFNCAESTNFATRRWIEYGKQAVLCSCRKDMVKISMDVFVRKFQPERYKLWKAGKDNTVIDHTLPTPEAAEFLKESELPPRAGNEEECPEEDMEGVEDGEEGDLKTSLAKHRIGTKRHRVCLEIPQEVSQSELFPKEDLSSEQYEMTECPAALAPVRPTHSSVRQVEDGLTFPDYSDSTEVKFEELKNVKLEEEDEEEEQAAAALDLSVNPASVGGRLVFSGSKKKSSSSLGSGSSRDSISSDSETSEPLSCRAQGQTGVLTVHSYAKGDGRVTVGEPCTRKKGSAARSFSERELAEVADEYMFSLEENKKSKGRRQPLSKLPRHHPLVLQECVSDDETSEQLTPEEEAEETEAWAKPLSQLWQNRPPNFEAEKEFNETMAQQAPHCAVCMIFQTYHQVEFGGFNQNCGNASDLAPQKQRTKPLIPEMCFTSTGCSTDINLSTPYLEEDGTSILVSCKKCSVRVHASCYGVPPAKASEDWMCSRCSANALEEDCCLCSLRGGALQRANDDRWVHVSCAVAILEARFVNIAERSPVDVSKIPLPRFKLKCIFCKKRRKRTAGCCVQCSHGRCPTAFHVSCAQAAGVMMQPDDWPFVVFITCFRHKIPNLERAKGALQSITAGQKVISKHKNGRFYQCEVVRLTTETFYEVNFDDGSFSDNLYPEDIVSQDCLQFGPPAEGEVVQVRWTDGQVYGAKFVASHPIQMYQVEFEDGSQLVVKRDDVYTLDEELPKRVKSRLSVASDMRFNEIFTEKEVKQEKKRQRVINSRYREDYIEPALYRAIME

Potency, active:
Cc1ccc(C2=NOC(=O)/C2=C\C=C\c2ccccc2)cc1 50.1 µM, CCOC(=O)CCCCC(=O)c1[nH]c(=O)[nH]c1CSCCO 79.4 µM, COc1ccc(OCC(=O)N/N=C/c2cccn2-c2cccc(C(=O)O)c2)cc1 44.7 µM, O=C(CN1CC(=O)Oc2ccccc21)OCC(=O)c1ccc(Br)cc1 20 µM, O=C(O)CNc1ccccc1C(=O)O 56.2 µM, Oc1ccc(O)c(-c2cnns2)c1 3.16 µM, COc1cccc(-c2nc(N3CCCCC3)c3ccccc3n2)c1O 35.5 µM, CC(C)C[C@@H](CN)NC(=O)c1nc[nH]c1C(=O)N[C@@H](C)C(=O)CNC[C@H](CC(C)C)NC(=O)c1nc[nH]c1C(=O)N[C@@H](Cc1ccccc1)C(=O)O 79.4 µM, Oc1c(C(c2ccccn2)N2CCCCC2)cc(Cl)c2cccnc12 (stereo not given) 22.4 µM, CC(C)(C)CC(=O)Nc1nn[nH]n1 56.2 µM, COc1ccc(Nc2c(-c3ccco3)nc3cccc(C)n23)cc1 56.2 µM, O=C(COC(=O)c1ccc(F)cc1Cl)NCc1ccco1 50.1 µM, Cn1cnnc1SCC(=O)Nc1ncc([N+](=O)[O-])s1 28.2 µM, NNc1cc([N+](=O)[O-])cc2c1C(=O)N(Cc1ccccc1)S2=O (stereo not given) 56.2 µM, Nc1ccc2ccccc2c1N=Nc1ccccc1 12.6 µM, COc1ccc(-c2ccc(-c3nc4ccc(C)cn4c3NC3CCCCC3)cc2OC)cc1 39.8 µM, Cc1ccc(-n2c(-c3ccccc3)c[nH]c2=S)cc1 11.2 µM, Cc1ccc2cccc(O)c2[n+]1[O-] 10 µM, CN(CP(=O)(O)CN(C)S(C)(=O)=O)S(C)(=O)=O 50.1 µM, CC(C)c1nnc(NC(=O)c2cnccn2)s1 1.12 µM, Cc1cccc(Nc2ccc(S(=O)(=O)N3CCOCC3)cc2[N+](=O)[O-])c1 10 µM, CCCCC(=O)NC(=S)NNC(=O)CC#N 17.8 µM

Potency, inconclusive:
CC(C)(C)OC(=O)COc1cc(OCC(=O)OC(C)(C)C)c2c(=O)cc(-c3ccccc3)oc2c1 56.2 µM [inhibitor, partial curve], O=C(NCc1ccc(Cl)cc1)C(=O)NCC(c1cccnc1)N1CCN(c2ccc(F)cc2)CC1 (stereo not given) 17.8 µM [inhibitor, partial curve], Cc1[nH]c2ccc(F)cc2c1CCN(Cc1ccncc1)C(=S)Nc1ccccc1 31.6 µM [inhibitor, partial curve], O=C(O)c1csc(Cc2ccccc2)n1 79.4 µM [inhibitor, partial curve], CCN1CCN(Cc2ccc(NC(=O)c3cc(NC(=O)c4cc(C)on4)cc(OC)c3)cc2C(F)(F)F)CC1 56.2 µM [inhibitor, partial curve], O=[N+]([O-])c1ccc(O)c(/C=N/Nc2ccccn2)c1 44.7 µM [inhibitor, single point], COc1ccc(CCNCc2c(-c3ccccc3)n(C)c3ccccc23)cc1 28.2 µM [inhibitor, single point], O=C(/C=C1\C(=O)Nc2ccccc21)/C=C1\C(=O)Nc2ccccc21 39.8 µM [inhibitor, partial curve], CCCCCn1c(NCc2ccco2)nc2ccccc21 63.1 µM [inhibitor, partial curve], O=C(NC1CC1)C1=C[C@H](c2c[nH]c3ccccc23)C[C@H](OCc2ccc(CO)cc2)O1 79.4 µM [inhibitor, partial curve], Cc1cc(Nc2ccc(N3CCC(C)CC3)cc2)n2ncnc2n1 79.4 µM [inhibitor, partial curve], COc1ccc(/C=C/C(=O)Nc2ccccc2C(=O)NCC(c2ccc(OC)cc2)N(C)C)cc1 (stereo not given) 44.7 µM [inhibitor, partial curve], N[C@@H](Cc1cnc[nH]1)C(=O)Nc1ccc2ccccc2c1 7.08 µM [inhibitor, full curve], CN1CCN(c2ccc(NC(=S)NC(=O)c3cccc4ccccc34)cc2)CC1 31.6 µM [inhibitor, full curve], S=C(NC1CCCCC1)N1CCOCCOCCN(C(=S)NC2CCCCC2)CCOCCOCC1 79.4 µM [inhibitor, partial curve], CCCCC1=CC2=C(c3ccco3)C(=O)C(C)(OC(=O)c3ccc(OC)cc3)C(=O)C2=CN1CCCOC(C)C (stereo not given) 50.1 µM [inhibitor, partial curve], N#Cc1c(N)n[nH]c1-c1cc2c([nH]1)CCCC2 35.5 µM [inhibitor, partial curve], O=C(Nc1ccc([N+](=O)[O-])cc1Cl)c1cc(Cl)ccc1O 70.8 µM [inhibitor, partial curve, poor fit], Clc1cccc(CSc2nccn2-c2ccccc2)c1 20 µM [inhibitor, full curve], CC1CCCCN1C(=O)COC(=O)c1ccc(S(C)(=O)=O)c([N+](=O)[O-])c1 (stereo not given) 3.98 µM [inhibitor, single point], O=c1[nH]c2ccccc2cc1CN(Cc1cccnc1)S(=O)(=O)c1ccc([N+](=O)[O-])cc1 39.8 µM [inhibitor, partial curve], CSc1ccc(/C=C2\CCn3c2nc2cc(C(=O)O)ccc2c3=O)cc1 79.4 µM [inhibitor, single point], Cc1cc(C(F)(F)F)nn1CC(=O)N1CCCC1 3.98 µM [inhibitor, single point], O=C(/C=C/c1ccccc1)NC(NC(=S)Nc1cccc(O)c1)C(Cl)(Cl)Cl (stereo not given) 44.7 µM [inhibitor, partial curve], COc1ccc(/C=C/C(=O)c2c(O)cc(C)oc2=O)c(OC)c1 79.4 µM [inhibitor, single point], O=C(O)C(C(=O)O)=C1C2CC3CC(C2)CC1C3 89.1 µM [inhibitor, single point], COc1ccccc1-c1cc(N)n(S(=O)(=O)c2cccc3nsnc23)n1 56.2 µM [inhibitor, partial curve], CN1CCN(CCCNC(=O)c2ccc(/C=C3/Sc4ccccc4N(Cc4cccc(Cl)c4)C3=O)cc2)CC1 50.1 µM [inhibitor, partial curve], CCc1nc2scc(-c3cccs3)c2c(=O)o1 89.1 µM [inhibitor, single point], COc1cccc(C2c3cc4c(cc3OC(N3CCCC3)C2C)OCO4)c1O (stereo not given) 22.4 µM [inhibitor, full curve], O=C(CN1C(=O)/C(=C\c2cccs2)SC1=S)Nc1cccc(C(=O)O)c1 56.2 µM [inhibitor, partial curve], CC(C)C[C@H](NC(=O)c1nc[nH]c1C(=O)NC1CCNCC1)C(=O)OCc1ccccc1 44.7 µM [inhibitor, single point], COc1cccc(C2c3c(ncn(-c4cccc(Cl)c4)c3=N)Oc3ccc4ccccc4c32)c1 (stereo not given) 44.7 µM [inhibitor, partial curve], O=C1c2ccccc2C(=O)N1CCCCSc1nc2ccccc2c(=O)n1CCCN1CCOCC1 56.2 µM [inhibitor, partial curve]

Activity change, negative = inhibition, inconclusive:
COc1ccc(C(c2c(NC(=O)c3ccco3)sc(C)c2C)N2CCOCC2)cc1 (stereo not given) -38.6% [inhibitor]

Activity change, negative = inhibition, inactive:
CCCc1nnc(SCC(=O)N2CCCC2)n1Cc1ccco1 -8.65%, Cc1cc(C)c(C)c(S(=O)(=O)N[C@@H](C)C(=O)OCc2cc(=O)n3cc(Br)ccc3n2)c1C -25.7%, O=C(NCCCN1CCOCC1)c1ccccc1NS(=O)(=O)c1cc([N+](=O)[O-])ccc1Cl -7.38%, Cc1cc(NCCO)nc(-n2nc(C)cc2C)n1 -7.51%, O=C(NCC(c1cccs1)N1CCOCC1)C1CCN(S(=O)(=O)c2ccccc2C(F)(F)F)CC1 (stereo not given) -17.3%, Cc1cccc(C(=O)NCC(=O)N2CCCC2)c1 -8.97%, COC(=O)C1(Cc2ccc(O)c(CC3OC3(C)C)c2)OC(=O)C(O)=C1c1ccc(O)cc1 (stereo not given) -32.7%, Cc1ccc2c(C)c(C(=O)N3CCC(c4nc5ccccc5s4)CC3)oc2c1C -6.29%, COc1ccccc1C(=O)NC(=O)COC(=O)CCOc1cc(C)ccc1C 30.7%, Cc1ccc(NC(=O)CSc2nc(N)c3c4c(sc3n2)CSC(C)(C)C4)cc1 -9%, CCc1cc(C(=O)Nc2ncccc2O)sc1C -8.59%, COc1ccc(C(=O)Nc2nc(-c3nnn(-c4ccc(F)cc4F)c3C)ns2)cc1 -28.2%, Cc1ccc(O)c(Nc2nc3ccccc3c3nncn23)c1 -15.1%, Cc1ccc(N2C(=O)c3ccccc3NC2(C(=O)O)c2ccccc2)cc1Cl (stereo not given) -4.01%, NS(=O)(=O)c1ccc(NC(=O)CN2CCc3ccccc3C2)cc1 -15.4%, Cc1ccc(S(=O)(=O)c2c(Nc3ccc(C)c(C)c3)sc(C(=O)c3ccc4c(c3)OCO4)c2N)cc1 -35.1%, O=C(Nc1ccccc1)C1=C[C@@H](c2ccc(Br)cc2)C[C@@H](OCCCCO)O1 -16.5%, Cc1ccc(C(=O)NC2CCN(CC(=O)Nc3ccccc3Cl)CC2)cc1 -9.09%
